Results published in PMC13086964 (Nature Communications, 2026).

Target: T1, recombinant full length His6-MBP-FAN1-His6 (human, UniProt Q9Y2M0 1-1017)
T1 construct: human FAN1, full length; Tag ends are read from the printed name His6-MBP-FAN1-His6; also called MBP-His-tagged FAN1; recombinant human FAN1; source: E. coli BL21, purified (HisTrap, MBPTrap, desalting); not shown: His6, N-terminal, kept; MBP, N-terminal, kept; His6, C-terminal, kept
T1 sequence (looked up): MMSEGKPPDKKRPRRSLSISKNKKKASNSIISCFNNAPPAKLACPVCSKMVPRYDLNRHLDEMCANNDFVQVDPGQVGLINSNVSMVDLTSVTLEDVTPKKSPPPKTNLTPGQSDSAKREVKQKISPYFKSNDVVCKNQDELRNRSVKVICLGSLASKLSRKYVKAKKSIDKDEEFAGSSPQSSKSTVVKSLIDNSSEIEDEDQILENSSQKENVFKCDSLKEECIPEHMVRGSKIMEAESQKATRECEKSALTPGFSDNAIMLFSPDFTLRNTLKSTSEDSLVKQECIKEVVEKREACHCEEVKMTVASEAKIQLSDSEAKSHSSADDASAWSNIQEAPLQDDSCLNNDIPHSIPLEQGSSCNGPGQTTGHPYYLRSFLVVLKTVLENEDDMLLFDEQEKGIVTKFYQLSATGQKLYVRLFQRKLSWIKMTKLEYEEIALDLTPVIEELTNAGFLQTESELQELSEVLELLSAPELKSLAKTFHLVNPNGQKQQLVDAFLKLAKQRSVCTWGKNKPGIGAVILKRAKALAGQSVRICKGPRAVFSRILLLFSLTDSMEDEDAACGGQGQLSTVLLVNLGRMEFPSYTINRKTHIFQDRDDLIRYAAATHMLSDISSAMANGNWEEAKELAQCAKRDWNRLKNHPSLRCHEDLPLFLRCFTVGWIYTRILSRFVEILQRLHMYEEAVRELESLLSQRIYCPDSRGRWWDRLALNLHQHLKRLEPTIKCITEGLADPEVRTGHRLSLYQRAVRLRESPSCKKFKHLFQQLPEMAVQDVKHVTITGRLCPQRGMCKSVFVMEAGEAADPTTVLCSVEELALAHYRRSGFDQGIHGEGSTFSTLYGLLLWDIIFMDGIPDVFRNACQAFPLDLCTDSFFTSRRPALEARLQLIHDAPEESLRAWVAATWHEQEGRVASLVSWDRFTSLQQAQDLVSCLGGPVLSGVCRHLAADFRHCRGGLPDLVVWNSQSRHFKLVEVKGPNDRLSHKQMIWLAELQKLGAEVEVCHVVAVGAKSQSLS
Assay: pull-down; in vitro streptavidin pull-down with recombinant biotin-tagged USP7 TRAF-like or UBL domains and MBP-His-tagged FAN1 (Figure S3A)
Settings: both partners purified

B1: USP7 TRAF domain ([…]), biotinylated (domain or fragment)
chain: not shown
modifications: biotin (on the AviTag)
notes: pNICBio2 vector; also called USP7 TRAF-like domain; source: E. coli BL21(DE3)-pBirAcm, purified (TALON, SEC); not shown: AviTag, C-terminal, kept
binding result: binds
